Measurements: paper PMC6367340, “Novel insights into P450 BM3 interactions with FDA-approved antifungal azole drugs” (Scientific Reports, 2019)

Experiments:
WT BM3 heme domain = target: T1, WT BM3 heme domain (Priestia megaterium, UniProt P14779); test: biochemical; format: binding, Bacillus megaterium
T1 construct: The BM3 heme domain proteins (WT and the DM A82F/F87V variant) used in this study were expressed as described in our previous studies; made in house; host or cells: E. coli BL21 (DE3)
Text: (§1) This leads to dioxygen (O2) binding to heme iron and to the progression of the P450 catalytic cycle that leads to monooxygenation of the substrate. […] P450 UV-visible binding assays and other spectroscopic studies using azoles are often hindered by the low solubility of many of these drugs. […] The azoles used range widely in size and structure, and contain either an imidazole or a triazole functional group (or two triazole groups in the case of fluconazole). […] Spectral binding data were fitted using hyperbolic (Michaelis-Menten)[30] or tight-binding (Morrison)[31] equations, or by using the Hill function[32] in cases where there was a clear sigmoidal dependence of heme absorbance change on azole drug concentration.
(§2) Experiments were performed using a Cary 50 UV-Visible spectrophotometer (Agilent Technologies Ltd). WT and DM heme domains at concentrations of ~2–4 μM were used, and binding titrations were done by the addition of small (typically 0.2–0.4 μL) volumes of azole ligand stocks (1, 10 or 30 mM, to minimize amounts of solvent carrier used) to a 1 mL heme domain sample in a quartz cuvette. An extinction coefficient of 95 mM^−1 cm^−1 was used for the low-spin forms of the WT and DM heme domains. […] Azole drugs were obtained from Merck Chemicals (Nottingham, UK). All azole compounds used in these and other experiments done in this manuscript were sourced from Sigma Aldrich (Cambridge, UK).
(§3) Data were processed by the subtraction of the spectrum of each successive ligand-bound form (from a specific titration set) from the spectrum of the ligand-free enzyme. This produced a set of difference spectra (for each particular azole titration), from which wavelengths associated with the absorbance minimum (Amin) and maximum (Amax) were readily identified. For each titration point, an absorbance difference value was calculated as Amax minus Amin, using the same wavelength pair throughout an individual experiment. These values were then plotted against the relevant azole ligand concentrations used. […] Assays were done using 25 mM KPi (pH 7) at a constant temperature of 30 °C.

[1] = target: T2, BM3 A82F/F87V double mutant (DM) heme domain (Priestia megaterium, UniProt P14779, A83F/F88V); test: biochemical; format: binding, Bacillus megaterium; conditions: for Kd: DM (A82F/F87V) BM3 heme domain, 25 mM KPi pH 7, 30 °C
T2 construct: The BM3 heme domain proteins (WT and the DM A82F/F87V variant) used in this study were expressed as described in our previous studies; made in house; host or cells: E. coli BL21 (DE3)
Text: as §1, §2, §3

[2] = WT BM3 heme domain, 25 mM KPi pH 7, 30 °C, NB = no binding seen in UV-visible spectroscopic titrations

T1 sequence (P14779 2-472): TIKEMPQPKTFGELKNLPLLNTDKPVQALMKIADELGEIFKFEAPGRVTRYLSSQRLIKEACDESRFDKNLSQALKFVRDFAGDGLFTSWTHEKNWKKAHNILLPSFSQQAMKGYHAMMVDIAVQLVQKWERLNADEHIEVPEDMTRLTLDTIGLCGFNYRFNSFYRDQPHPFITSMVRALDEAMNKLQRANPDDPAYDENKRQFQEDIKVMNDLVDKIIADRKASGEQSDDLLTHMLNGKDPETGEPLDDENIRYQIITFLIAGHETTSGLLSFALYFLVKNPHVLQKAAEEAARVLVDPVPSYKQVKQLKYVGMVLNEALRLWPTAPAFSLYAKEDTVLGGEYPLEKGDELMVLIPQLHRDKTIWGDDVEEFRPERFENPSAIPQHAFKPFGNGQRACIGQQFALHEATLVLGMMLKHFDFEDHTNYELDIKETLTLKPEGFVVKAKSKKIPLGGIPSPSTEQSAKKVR
T2 sequence (P14779 2-472 A83F/F88V): as the sequence (P14779 2-472) above, with A82F, F87V counted along it

Row | Compound | Kd (WT BM3 heme domain; [2]) [µM] | Kd [1] [nM] | Kd (WT BM3 heme domain; WT enzyme, Figure S1 legend, hyperbolic or Hill fit) [µM] | Delta Abs Peak (wavelength maximum of absorbance difference spectrum) (WT BM3 heme domain; WT BM3 heme domain) [nm] | Delta Abs Trough (wavelength minimum of absorbance difference spectrum) (WT BM3 heme domain; WT BM3 heme domain) [nm] | Delta Abs Peak (wavelength maximum of absorbance difference spectrum) ([1]; DM BM3 heme domain) [nm] | Delta Abs Trough (wavelength minimum of absorbance difference spectrum) ([1]; DM BM3 heme domain) [nm]
1 | Clc1ccccc1C(c1ccccc1)(c1ccccc1)n1ccnc1 [Clotrimazole] | 32.8 ± 1.9 | 420 ± 20 | – | – | – | – | –
2 | Clc1ccc(COC(Cn2ccnc2)c2ccc(Cl)cc2Cl)cc1 (centres unmarked) [Econazole nitrate] | 19.3 ± 1.1 | 530 ± 40 | 19.3 ± 1.1 | – | – | – | –
3 | Clc1ccc(COC(Cn2ccnc2)c2ccc(Cl)cc2Cl)c(Cl)c1 (centres unmarked) [Miconazole] | 6.94 ± 0.15 | 630 ± 30 | – | – | – | – | –
4 | Clc1ccc(CSC(Cn2ccnc2)c2ccc(Cl)cc2Cl)cc1 (centres unmarked) [Sulconazole nitrate] | – | – | – | 433 | 413 | 434 | 413
